Test results: PMC4336329 (PLoS ONE, 2015)
The campaign covered roughly 310,000 compounds. About 14,000 (4.5%) showed an effect of 50% or more. The effect is printed as a negative number. The list shows a part of the results.

Molecular target: human ether-à-go-go-related gene (hERG) potassium channel (human, UniProt Q12809)
Experiment: primary screen, population patch clamp on CHO cells stably expressing hERG
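Also: peak tail current of the secondary pulse compared with the same well before compound.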

human ether-à-go-go-related gene (hERG) potassium channel, sequence (Q12809 whole entry, looked up): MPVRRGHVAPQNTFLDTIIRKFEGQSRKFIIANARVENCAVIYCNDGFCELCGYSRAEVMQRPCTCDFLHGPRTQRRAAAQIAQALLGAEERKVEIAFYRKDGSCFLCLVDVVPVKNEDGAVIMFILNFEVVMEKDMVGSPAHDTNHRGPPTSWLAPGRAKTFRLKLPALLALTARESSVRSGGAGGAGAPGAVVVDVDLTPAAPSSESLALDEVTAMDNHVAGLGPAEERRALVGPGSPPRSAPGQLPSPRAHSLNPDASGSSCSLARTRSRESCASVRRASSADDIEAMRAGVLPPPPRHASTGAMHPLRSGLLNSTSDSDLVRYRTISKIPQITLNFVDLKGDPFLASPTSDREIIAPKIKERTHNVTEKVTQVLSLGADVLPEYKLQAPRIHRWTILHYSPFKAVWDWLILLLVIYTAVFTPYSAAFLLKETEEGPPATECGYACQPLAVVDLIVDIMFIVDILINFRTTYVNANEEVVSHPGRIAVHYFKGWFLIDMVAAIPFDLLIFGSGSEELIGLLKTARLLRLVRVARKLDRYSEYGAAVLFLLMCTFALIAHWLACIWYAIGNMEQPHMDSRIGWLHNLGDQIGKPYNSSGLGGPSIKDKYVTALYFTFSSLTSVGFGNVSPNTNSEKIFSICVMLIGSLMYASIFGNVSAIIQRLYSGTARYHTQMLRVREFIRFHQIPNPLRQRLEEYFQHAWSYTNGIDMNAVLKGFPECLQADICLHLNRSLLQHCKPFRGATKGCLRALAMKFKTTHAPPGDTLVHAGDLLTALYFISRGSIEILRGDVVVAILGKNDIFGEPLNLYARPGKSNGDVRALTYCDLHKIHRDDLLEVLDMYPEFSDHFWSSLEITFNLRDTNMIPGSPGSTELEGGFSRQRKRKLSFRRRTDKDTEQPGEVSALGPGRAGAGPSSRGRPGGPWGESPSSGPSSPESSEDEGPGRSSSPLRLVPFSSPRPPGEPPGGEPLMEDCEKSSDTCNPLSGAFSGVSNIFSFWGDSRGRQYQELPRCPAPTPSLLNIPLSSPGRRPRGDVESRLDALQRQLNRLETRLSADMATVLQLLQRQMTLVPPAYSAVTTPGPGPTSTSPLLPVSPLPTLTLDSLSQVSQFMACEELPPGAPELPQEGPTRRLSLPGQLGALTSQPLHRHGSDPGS

Row | SMILES | hERG current change (%, negative = inhibition) at 10uM
1 | O=C(NCc1ccco1)C1CC(c2c(Cl)cccc2Cl)=NO1 (stereo not shown) | 14.4%
2 | CCCCN(CCCNC(=O)Cn1nc(CC)n2c(cc3sc(C)cc32)c1=O)Cc1ccccc1 | -47.1%
3 | CN(C)c1nc(SCC#N)nc(N(C)C)n1 | -3.57%
4 | CCOc1ccc(C(=O)NCC(=O)NNC(=O)C2COc3ccccc3O2)cc1OCC (stereo not shown) | 8.51%
5 | COc1cccc(CN(C)CC(=O)NC(=O)NCc2ccco2)c1 | 6.08%
6 | CC(=O)N1CCN(C(=O)c2ccc(-c3cccc(C(F)(F)F)c3)o2)CC1 | -53.5%
7 | CS(=O)(=O)Nc1ccccc1C(=O)Nc1ccc2c(c1)OCCO2 | 15.4%
8 | C[C@@]12N[C@@H](Cc3ccccc31)c1ccccc12.O=C(O)/C=C\C(=O)O | 8.24%
9 | CCOc1cc(/C=C/C(=O)Nc2ccc(C(=O)NCCN(CC)CC)cc2)ccc1OCC(C)C | -32.2%
10 | CC(=O)Nc1ccc(OCC(O)Cn2cncn2)cc1 (stereo not shown) | 24.7%
11 | C=CCc1ccccc1OCC(=O)N/N=C/c1ccc(OC(C)=O)cc1OC(C)=O | -21.7%
12 | CC(OC(=O)c1cccn1C)C(=O)Nc1ccc2c(c1)OCO2 (stereo not shown) | -1.51%
13 | C=CCOc1ccc(/C=N/NC(=O)C(C)Sc2ccccn2)cc1OC (stereo not shown) | 9.27%
14 | CC1CCCCC1NC(=O)COC(=O)c1cc(=O)c2ccccc2o1 (stereo not shown) | 17.3%
15 | N#CCC(=O)NNc1c([N+](=O)[O-])cc(C(F)(F)F)cc1[N+](=O)[O-] | 28.8%
16 | CC(=O)c1ccc(N(C(=O)Cn2nnc(-c3ccccc3)n2)C(C(=O)NC2CCCCC2)c2ccccn2)cc1 (stereo not shown) | -0.553%
17 | COc1ccc(OCC(=O)NC(=S)Nc2ccccc2F)cc1 | 5.17%
18 | CNC(CC(=O)c1ccc([N+](=O)[O-])cc1)C(Cl)(Cl)Cl (stereo not shown) | 9.29%
19 | COc1cccc(N2CC(C(=O)Nc3nnc(SCCN4CCOCC4)s3)CC2=O)c1 (stereo not shown) | 1.95%
20 | COc1ccc(C(=O)C2(C)N(O)C(C)C(c3cccs3)=[N+]2[O-])cc1 (stereo not shown) | -0.251%
21 | CCOc1ccc2[nH]c(=O)c(CN(Cc3cccs3)Cc3nnnn3C(C)(C)CC)cc2c1 | -44%
22 | Nc1nonc1-n1nnc(C(=O)N/N=C/c2ccc(OCc3ccccc3F)cc2)c1CNc1ccccc1 | 15.9%
23 | O=C(CN1C(=O)C2CC=CCC2C1=O)Nc1nc2ccc(F)cc2s1 (stereo not shown) | -12.9%

Row | SMILES | hERG current change (%, negative = inhibition) at 10uM
24 | Cc1cc(C)cc(NC(=O)Nc2c(Br)cnn2C)c1 | -11%
25 | O=CNCC(=O)NCCc1ccc(Cl)cc1 | 6.96%
26 | O=C1CC(SC2=NCCS2)C(=O)N1c1ccc(Cl)cc1 (stereo not shown) | -10.8%
27 | CC(C)(C)C(=O)OCc1cn(-c2ccc(Cl)cc2)nn1 | -6.14%
28 | CC(NC(=O)c1cncc(Br)c1)c1ccc(S(N)(=O)=O)cc1 (stereo not shown) | -7.14%
29 | COc1cc(C(=O)N/N=C/c2ccc(OC(=O)c3cccc(C)c3)c(OC)c2)ccc1O | 5.97%
30 | CCCCCC(=O)NNC1CC(=O)N(c2cccc(OCC)c2)C1=O (stereo not shown) | 2.73%
31 | COC(=O)c1ccc(NC(=O)Cn2nnc3ccccc32)cc1 | 6.73%
32 | COc1ccc(NC(=S)N(CCN(C)C)C(C)c2ccco2)cc1 (stereo not shown) | -16.6%
33 | CCC(C)(C(=O)NC1CCCCC1)N(Cc1ccco1)C(=O)c1ccccn1 (stereo not shown) | -6.11%
34 | CNC(=O)c1sccc1S(=O)(=O)Cc1c(Cl)cccc1Cl | 4.89%
35 | COc1cc2c(cc1OC)C(C)N(C(=O)c1cc3c(s1)-c1ccccc1OC3)CC2 (stereo not shown) | -9.99%
36 | Cc1cc2cc(CCNC(=O)C3c4ccccc4Oc4ccccc43)c(=O)[nH]c2cc1C | -0.822%
37 | Cc1c(NC(=O)OCCNC(=O)Nc2ccccc2)sc(=S)n1C | 15%
38 | Oc1c(C=NCc2ccccc2)sc2ccccc12 | 5.42%
39 | Cc1ccc(NC(=O)C(=O)NCc2ccc(/C=N/NC(=O)c3c(C)nc4ccccn34)o2)cc1 | 1.37%
40 | O=[N+]([O-])c1ccc2[nH]c3c(c2c1)CCCC3 | 8.3%
41 | O=C1OC(c2ccc3c(c2)OCO3)=N/C1=C\c1ccc(C(=O)O)cc1 | 16.2%
42 | CN(c1ccccc1)c1ncccn1 | 18%
43 | CCOc1cc(-c2cc(-c3ccc(NC(C)=O)cc3)nc(N)c2C#N)ccc1O | 6.15%
44 | O=C1c2ccccc2-c2nc3ncnn3c(-c3ccccc3Cl)c21 | -5.42%
45 | COc1ccccc1-c1cn(C(C)(C)C)nc1C | 16%
46 | CC(=O)C1=C(O)C(=O)N(CCO)C1c1ccccc1 (stereo not shown) | 4.02%

Row | SMILES | hERG current change (%, negative = inhibition) at 10uM
47 | C=CCn1c(O)c(N=NC(=S)Nc2cccc(C)c2)c2ccccc21 | 4.29%
48 | COC(=O)c1ccc(C(=S)NCC2(N(C)C)CCCCC2)cc1 | 10.9%
49 | COc1ccc(C2=NOC(C(=O)NCc3ccc(F)cc3)C2)cc1 (stereo not shown) | -13.4%
50 | Cc1ccc(Cc2nc(-c3cccnc3)no2)cc1 | -17.8%
51 | COc1cc(CCC(=O)N2CCN(S(=O)(=O)c3ccc(C)cc3)CC2)cc(OC)c1OC | -14.3%
52 | NS(=O)(=O)c1ccc(CCNC(=O)c2cc(-c3cc(Cl)ccc3O)n[nH]2)cc1 | 16.3%
53 | CC(=O)c1ccccc1OCC(O)Cn1ccnc1 (stereo not shown) | 17.6%
54 | COC(=O)C1=CN(Cc2ccc(OC)cc2)C=C(C(=O)OC)C1c1cc(OC)c(OC)c(OC)c1 | -5.68%
55 | CC(=O)c1ccc(N2CCN(CC(O)COC(c3ccccc3)c3ccccc3C)CC2)cc1 (stereo not shown) | -41%
56 | CC(C)S(=O)(=O)C/C(N)=N/OC(=O)c1cc(Cl)cc(Cl)c1 | 13.9%
57 | CCN(CC)CCCNC(=O)c1cn(C)c2ccc(S(=O)(=O)N(C)C3CCCCC3)cc2c1=O | -24.8%
58 | COC(=O)c1ccc(-c2noc(CN3CCCC(CNC(C)=O)C3)n2)cc1 (stereo not shown) | 5.19%
59 | C=CCNc1nc(-c2sc(NC(=O)CC)nc2C)cs1 | -7.14%
60 | O=C(COc1ccc(F)cc1)N(c1ccccn1)C1CCCCC1 | 9.96%
61 | CCOc1ccc(C(=O)C(C)OC(=O)CN2C(=O)NC(C)(C)C2=O)cc1 (stereo not shown) | -7.23%
62 | COC(=O)c1ccc(/C=N/NC(=O)CNc2cccc(C)c2)cc1 | 0.756%
63 | COc1ccc(-c2coc3cc(O)cc(O)c3c2=O)cc1 | -10.5%
64 | Cc1nc(N2CCN(C)CC2)c2c3c(sc2n1)CCCC3 | -11.4%
65 | CCn1c(CNC(=O)c2ccc(OC)cc2)nnc1SC | 11.9%
66 | C=CCNC(=O)c1ccc(OC)cc1OC | 7.33%
67 | CCOP(=O)(OCC)C(NC(=O)c1ccccc1)C(Cl)(Cl)Cl (stereo not shown) | -5.83%
68 | O=C(OCC(=O)N1CCCC1)c1c(Cl)cccc1Cl | 14.6%
69 | COc1ccc(S(=O)(=O)NNC(N)=S)cc1 | 8.85%

Row | SMILES | hERG current change (%, negative = inhibition) at 10uM
70 | Cc1ccc(CSc2nnc(CC(=O)Nc3ccc(C)cc3)n2C)cc1 | -9.29%
71 | NC1=NC2(CCCCC2)n2c(nc3ccccc32)N1 | 0.282%
72 | COc1cccc2c1C(=O)CC1C2CCC2CC(=O)CCC21C (stereo not shown) | -33.9%
73 | Cc1ccc(NC(=O)CSCC(=O)N2CCOCC2)cc1 | 2.51%
74 | Cc1ccc(SCC(=O)N2CCC(C(N)=O)CC2)cc1 | 13.2%
75 | CC(C)C(=O)NC(c1ccco1)c1c(O)ccc2ccccc12 (stereo not shown) | 14.1%
76 | Cc1ccc(CCN2CC(C(=O)NCCCN(C)Cc3ccccc3)CC2=O)cc1 (stereo not shown) | 11.7%
77 | Nc1cc(=O)[nH]c(=O)n1Cc1ccco1 | -1.06%
78 | CCN(CC)S(=O)(=O)c1ccc(N2CCCC2)c(NC(=O)c2ccc(N3CCCC3=O)cc2)c1 | -46.9%
79 | O=C(N/N=C/c1cn(-c2ccccc2)nc1-c1ccccc1)c1ccco1 | 3.75%
80 | CCNc1nc(C(=O)O)nc(N2CCOCC2)n1 | 10.7%
81 | Cc1ccc(Nc2nnc(SC3CCOC3=O)s2)cc1 (stereo not shown) | 3.04%
82 | Cc1nn(Cc2ccccc2Cl)c2sc(C(=O)OC3CCCC3=O)cc12 (stereo not shown) | -4.19%
83 | CCN(CC)C(=O)C1CCCN(c2ncnc3c2cnn3-c2cccc(C)c2)C1 (stereo not shown) | -24.3%
84 | Cc1ccc(SCC(=O)OC(C)C(=O)NCc2ccccc2)cc1 (stereo not shown) | -1.8%
85 | Cc1csc(SCC(=O)Nc2c(C)n(C)n(-c3ccccc3)c2=O)n1 | 14.8%
86 | CCOC(=O)C1(CCOc2ccccc2)CCN(Cc2cccc(OC)c2O)CC1 | -70.5%
87 | CC(C)OCCCNC(=O)Cn1ccc2cc(S(=O)(=O)N3CCCCCC3)ccc21 | -28.6%
88 | CCOC(=O)c1ccc(S(=O)(=O)N2CCC(N3CCCCC3)CC2)cc1 | -12.6%
89 | O=C(Nc1nc2ccccc2[nH]1)c1ccc(F)cc1 | -4.63%
90 | CCc1ccc(OC(=O)c2cncc(Br)c2)cc1 | 17.1%
91 | Cc1cccc(NC(=O)C2CCCN2C(=O)Oc2ccccc2)c1 (stereo not shown) | -8.43%
